Data as given in PubChem BioAssay (Tox21).
Values joined by “and” are separate entries in the source; they are usually repeats but may differ in a detail not shown here. Identical values can stand only once. Inconclusive means that the source gave no clear call. Such entries were picked first, then a sample of the others. For some assays here: Where the call is inconclusive, the potency comes from a doubtful curve fit. Active and inactive are the calls of the source. Unless noted, calls come from the whole dose curve; as a rule, active = well fitted curve in the direction sought with a large enough effect in the repeat runs; inconclusive = weak or mixed curves; inactive = no such curve, though single readings can be large; an effect the other way counts as inactive or inconclusive.

Columns and labels:
[1] = qHTS assay to identify small molecule that activate the aryl hydrocarbon receptor (AhR) signaling pathway - cell viability counter screen (AID 743086); note: nearly all actives have a fitted effect of over 45% in size
Procedure, shortened: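 Cytotoxicity counter screen: CellTiter-Fluor signal (30 min, 37 C) in 4000 HepG2 cells/well carrying the DRE-luciferase reporter, following 24 h compound exposure at 37 C.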

[2] = qHTS assay to identify small molecule antagonists of the peroxisome proliferator-activated receptor gamma (PPARg) signaling pathway - cell viability counter screen (AID 743194); settings: PPARg-bla HEK293H viability, CellTiter-Glo luminescence, 17 h, co-treated with 50 nM rosiglitazone; activity change, negative = cytotoxicity: at 62.6 µM (top of the series) unless noted; note: nearly all actives have a fitted effect of over 55% in size
Procedure, shortened: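 Viability was measured as CellTiter-Glo luminescence in GeneBLAzer PPARg UAS-bla HEK293H cells. These cells had been exposed 17 h at 37 C to compounds together with rosiglitazone at 50 nM final, with the beta-lactamase readout taken in the same wells.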

[3] = qHTS assay for small molecule agonists of the antioxidant response element (ARE) signaling pathway (AID 743202; active = well fitted activation curve with a large enough effect in the signal ratio in the repeat runs, not every such curve was filed as active; inconclusive = weak or mixed curves, or effect the other way; inactive = no such curve, though single readings can be large or run the other way; the % refers to the signal ratio); settings: HepG2 ARE-bla reporter, beta-lactamase FRET, 16 h; activation: at 73.3 µM (top of the series) unless noted
Procedure, shortened: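 Quantitative high-throughput format in HepG2 cells bearing an integrated ARE-beta-lactamase reporter. Compound exposure lasted 16 h at 37 C, and fluorescence was read 2 h after adding LiveBLAzer B/G substrate at room temperature.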

[4] = qHTS assay for small molecule activators of the heat shock response signaling pathway - cell viability counter screen (AID 743209); settings: HSE-bla HeLa viability, CellTiter-Glo luminescence, 5 h; activity change, negative = cytotoxicity: at 62.6 µM (top of the series) unless noted; note: nearly all actives have a fitted effect of over 50% in size
Procedure, shortened: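 HSE-bla HeLa cells plated overnight, then exposed to Tox21 compounds (23 nL in DMSO) for 5 h at 37 C. After the bla reporter read, CellTiter-Glo was added in the same wells and luminescence read after 30 min at room temperature.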

[5] = qHTS assay for small molecule activators of the heat shock response signaling pathway (AID 743210; active = well fitted activation curve with a large enough effect in the signal ratio in the repeat runs, with a control signal flat, not every such curve was filed as active; inconclusive = weak or mixed curves; the % refers to the signal ratio); settings: HeLa HSE-bla reporter, beta-lactamase ratio, 5 h; activation: at 62.6 µM (top of the series)
Procedure, shortened: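 HeLa HSE-bla cells, overnight plating; cpd in DMSO 5 h, 37 C; LiveBLAzer B/G FRET substrate 2.5 h RT; fluorescence intensity read.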

[6] = qHTS assay to identify small molecule agonists of the peroxisome proliferator-activated receptor delta (PPARd) signaling pathway - cell viability counter screen (AID 743211); settings: PPARd-bla HEK293H viability, CellTiter-Glo luminescence, 17 h; activity change, negative = cytotoxicity: at 62.6 µM (top of the series); note: nearly all actives have a fitted effect of over 55% in size
Procedure, shortened: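 Counter screen for cytotoxicity run in parallel with the PPARd reporter screen. Beta-lactamase reporter HEK293H cells exposed to compounds 17 h; ATP-based CellTiter-Glo luminescence quantified viability.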

[7] = molecular target: Peroxisome proliferator-activated receptor delta (Homo sapiens) (UniProt Q03181); assay: qHTS assay to identify small molecule agonists of the peroxisome proliferator-activated receptor delta (PPARd) signaling pathway (AID 743212; calls by dose curve); settings: HEK293H PPARd-UAS-bla, beta-lactamase FRET ratio, 17 h; activation: at 62.6 µM (top of the series) unless noted
Procedure, shortened: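 HEK293H PPARd-bla cells; 5 h preincubation 37 C/5% CO2; compound (DMSO) 37 C; LiveBLAzer B/G FRET substrate 2 h RT; fluorescence intensity.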

[8] = qHTS assay to identify small molecule antagonists of the peroxisome proliferator-activated receptor delta (PPARd) signaling pathway - cell viability counter screen (AID 743213); settings: PPARd-bla HEK293H viability, CellTiter-Glo luminescence, 17 h; viability change, negative = cytotoxic: at 62 µM (top of the series) unless noted; note: nearly all actives have a fitted effect of over 50% in size
Procedure, shortened: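 PPARd-bla HEK293H cells (3000/well) got compound plus 300 nM L165041 agonist for 17 h at 37 C. Viability in the same wells came from CellTiter-Glo luminescence after 30 min at room temperature.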

[9] = molecular target: Peroxisome proliferator-activated receptor delta (Homo sapiens) (UniProt Q03181); assay: qHTS assay to identify small molecule antagonists of the peroxisome proliferator-activated receptor delta (PPARd) signaling pathway (AID 743215; active = well fitted inhibition curve with a large enough effect in the signal ratio in the repeat runs, not every such curve was filed as active; inconclusive = weak or mixed curves, or effect the other way; inactive = no such curve, though single readings can be large or run the other way; the % refers to the signal ratio;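 note: cells stimulated with agonist L165041 at 300 nM final during compound exposure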); settings: HEK293H PPARd-UAS-bla, beta-lactamase FRET ratio, antagonist, 17 h; series mostly up to 62 µM
Procedure, shortened: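 PPARd-bla HEK293H cells (UAS-bla reporter) preincubated 5 h, then given compound plus 300 nM final L165041 agonist for 17 h at 37 C. Beta-lactamase activity read by LiveBLAzer B/G FRET substrate fluorescence after 2 h at room temperature.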

[10] = molecular target: Bile acid receptor (Homo sapiens) (UniProt Q96RI1); assay: qHTS assay to identify small molecule antagonists of the farnesoid-X-receptor (FXR) signaling pathway (AID 743217; active = well fitted inhibition curve with a large enough effect in the signal ratio in the repeat runs, not every such curve was filed as active; inconclusive = weak or mixed curves, or effect the other way; inactive = no such curve, though single readings can be large or run the other way; the % refers to the signal ratio); settings: HEK293T FXR-UAS-bla, beta-lactamase ratio, CDCA-stimulated, 16 h; activity change, negative = inhibition: at 62.6 µM (top of the series) unless noted
Procedure, shortened: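 FXR-UAS-bla HEK 293T cells (beta-lactamase reporter) given compound plus chenodeoxycholic acid (50 uM final), 16 h at 37C. LiveBLAzer B/G FRET substrate added for 2 h at room temperature; fluorescence read.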

[11] = qHTS assay to identify small molecule agonists of the farnesoid-X-receptor (FXR) signaling pathway - cell viability counter screen (AID 743218); settings: FXR-bla HEK293T viability, CellTiter-Glo luminescence, 16 h; viability change, negative = cytotoxic: at 62.6 µM (top of the series) unless noted; note: nearly all actives have a fitted effect of over 45% in size
Procedure, shortened: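 FXR-UAS-bla HEK 293T cells exposed to compounds for 16 h at 37C. Cytotoxicity read in the same wells by CellTiter-Glo luminescence after 30 min at room temperature, following the beta-lactamase FRET read.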

[12] = molecular target: Bile acid receptor (Homo sapiens) (UniProt Q96RI1); assay: qHTS assay to identify small molecule agonists of the farnesoid-X-receptor (FXR) signaling pathway (AID 743220; active = well fitted activation curve with a large enough effect in the signal ratio in the repeat runs, not every such curve was filed as active; inconclusive = weak or mixed curves, or effect the other way; the % refers to the signal ratio); settings: HEK293T FXR-UAS-bla, beta-lactamase FRET ratio, 16 h; activation: at 62.6 µM (top of the series) unless noted
Procedure, shortened: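 Beta-lactamase reporter under UAS control in GeneBLAzer FXR HEK 293T cells (5000/well) measured with LiveBLAzer FRET substrate after 2 h at room temperature. Compound exposure lasted 16 h at 37C.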

[13] = qHTS assay to identify small molecule antagonists of the farnesoid-X-receptor (FXR) signaling pathway - cell viability counter screen (AID 743221; active = well fitted cell-killing curve with a large enough effect in the repeat runs, not every such curve was filed as active; inconclusive = weak or mixed curves, or effect the other way; inactive = no such curve, though single readings can be large or run the other way; note: nearly all actives have a fitted effect of over 50% in size); settings: FXR-bla HEK293T viability, CellTiter-Glo luminescence, 16 h; activity change, negative = cytotoxicity: at 62.6 µM (top of the series)
Procedure, shortened: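 Multiplexed counter screen: viability of FXR-bla HEK 293T cells under agonist stimulation by chenodeoxycholic acid (50 uM, final) and test compound for 16 h at 37 C, measured by CellTiter-Glo luminescence in the reporter wells.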

[14] = molecular target: Vitamin D3 receptor (Homo sapiens) (UniProt P11473); assay: qHTS assay to identify small molecule agonists of the vitamin D receptor (VDR) signaling pathway (AID 743222; calls by dose curve); settings: HEK293T VDR-UAS-bla, beta-lactamase FRET ratio, 16 h; activation: at 63.5 µM (top of the series) unless noted
Procedure, shortened: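 VDR-bla cells plated 4 h at 37 C, then exposed to compounds for 16 h at 37 C. Beta-lactamase reporter activity measured by fluorescence after 2 h room-temperature loading with LiveBLAzer B/G FRET substrate.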

[15] = molecular target: Vitamin D3 receptor (Homo sapiens) (UniProt P11473); assay: qHTS assay to identify small molecule antagonists of the vitamin D receptor (VDR) signaling pathway (AID 743223; active = well fitted inhibition curve with a large enough effect in the signal ratio in the repeat runs, not every such curve was filed as active; inconclusive = weak or mixed curves, or effect the other way; inactive = no such curve, though single readings can be large or run the other way; the % refers to the signal ratio); settings: VDR-UAS-bla HEK293T, beta-lactamase FRET ratio, 16 h; activity change, negative = inhibition: at 61 µM (top of the series) unless noted
Procedure, shortened: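 Cells carrying a VDR-driven beta-lactamase reporter (VDR-bla) were co-treated with compound and 3 nM final 1alpha,25-dihydroxyvitamin D3 for 16 h at 37C; reporter activity was measured as FRET substrate fluorescence after 2 h at room temperature.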

[16] = qHTS assay to identify small molecule agonists of the vitamin D receptor (VDR) signaling pathway - cell viability counter screen (AID 743224); settings: VDR-bla HEK293T viability, CellTiter-Glo luminescence, 16 h; activity change, negative = cytotoxicity: at 62.6 µM (top of the series) unless noted; note: nearly all actives have a fitted effect of over 50% in size
Procedure, shortened: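 VDR-bla cells, 4 h after plating, exposed to compounds for 16 h at 37C; viability then read in the same wells as CellTiter-Glo luminescence after 30 min at room temperature, following the bla FRET read.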

[17] = qHTS assay to identify small molecule antagonists of the vitamin D receptor (VDR) signaling pathway - cell viability counter screen (AID 743225); settings: VDR-bla HEK293T viability, CellTiter-Glo luminescence, 16 h; viability change, negative = cytotoxic: at 61 µM (top of the series) unless noted; note: nearly all actives have a fitted effect of over 50% in size
Procedure, shortened: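 HEK293T VDR-bla; cpd + 1a,25-(OH)2D3 3 nM final, 16 h 37C/5% CO2; B/G FRET substrate 2 h RT; then CellTiter-Glo 30 min RT, luminescence.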

[18] = qHTS assay for small molecule agonists of the antioxidant response element (ARE) signaling pathway - cell viability counter screen (AID 743203; calls by dose curve; note: nearly all actives have a fitted effect of over 55% in size); settings: ARE-bla HepG2 viability, CellTiter-Glo luminescence, 16 h; viability change, negative = cytotoxic: at 73.3 µM (top of the series)
Procedure, shortened: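 ARE-bla HepG2 cells were plated, rested 5 h at 37C/5% CO2, then exposed to compounds in DMSO for 16 h. Viability was read as CellTiter-Glo luminescence after 30 min at room temperature, in the same wells as the ARE screen.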
Potency is the fitted concentration of half-maximal effect; tags give direction and shape of the fitted curve or compound fluorescence and quenching.

Chain of UniProt Q03181 (Q03181 whole entry, looked up): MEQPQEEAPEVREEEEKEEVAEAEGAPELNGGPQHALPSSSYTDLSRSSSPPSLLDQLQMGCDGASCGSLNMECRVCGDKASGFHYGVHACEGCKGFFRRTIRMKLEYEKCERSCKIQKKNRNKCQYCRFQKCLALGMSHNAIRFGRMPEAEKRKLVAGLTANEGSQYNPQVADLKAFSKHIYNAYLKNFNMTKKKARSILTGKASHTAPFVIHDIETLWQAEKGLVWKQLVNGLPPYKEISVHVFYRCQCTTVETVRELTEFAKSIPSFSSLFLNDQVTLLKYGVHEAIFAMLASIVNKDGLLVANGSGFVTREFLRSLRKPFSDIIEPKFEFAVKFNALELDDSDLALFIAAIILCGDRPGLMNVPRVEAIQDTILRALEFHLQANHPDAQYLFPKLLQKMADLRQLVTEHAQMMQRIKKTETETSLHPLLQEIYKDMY
Chain of UniProt P11473 (P11473 whole entry, looked up): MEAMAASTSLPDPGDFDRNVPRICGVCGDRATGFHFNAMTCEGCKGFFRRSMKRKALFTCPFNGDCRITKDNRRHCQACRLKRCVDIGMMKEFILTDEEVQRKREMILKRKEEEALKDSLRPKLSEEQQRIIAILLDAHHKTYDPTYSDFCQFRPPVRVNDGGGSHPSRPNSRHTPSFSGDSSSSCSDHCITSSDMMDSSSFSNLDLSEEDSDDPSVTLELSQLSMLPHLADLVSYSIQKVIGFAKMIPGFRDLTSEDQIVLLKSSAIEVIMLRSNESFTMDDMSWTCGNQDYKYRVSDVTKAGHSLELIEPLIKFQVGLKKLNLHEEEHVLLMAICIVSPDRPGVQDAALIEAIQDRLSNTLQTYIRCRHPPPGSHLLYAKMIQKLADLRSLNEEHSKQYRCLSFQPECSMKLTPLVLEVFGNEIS
Chain of UniProt Q96RI1 (Q96RI1 whole entry, looked up): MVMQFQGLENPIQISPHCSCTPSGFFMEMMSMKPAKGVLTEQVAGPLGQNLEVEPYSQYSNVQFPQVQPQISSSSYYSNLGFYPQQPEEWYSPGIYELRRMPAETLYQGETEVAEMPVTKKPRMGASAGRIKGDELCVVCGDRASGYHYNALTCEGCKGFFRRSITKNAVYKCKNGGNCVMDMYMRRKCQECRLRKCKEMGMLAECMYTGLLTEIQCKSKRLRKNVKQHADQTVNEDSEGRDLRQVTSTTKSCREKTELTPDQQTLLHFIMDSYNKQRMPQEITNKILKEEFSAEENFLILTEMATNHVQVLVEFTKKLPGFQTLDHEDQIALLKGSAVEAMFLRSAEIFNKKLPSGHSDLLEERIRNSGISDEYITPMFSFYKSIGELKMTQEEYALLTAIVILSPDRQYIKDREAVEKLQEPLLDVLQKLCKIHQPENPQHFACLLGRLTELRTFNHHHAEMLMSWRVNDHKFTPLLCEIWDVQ

Compound | Potency [1] | Potency [2] | Potency [3] | Potency [4] | Potency [5] | Potency [6] | Potency [7] | Potency [8] | Potency [9] | Potency [10] | Potency [11] | Potency [12] | Potency [13] | Potency [14] | Potency [15] | Potency [16] | Potency [17] | Potency [18]
Cc1oc(-c2ccccc2)nc1CCOc1ccc(C[C@H](Nc2ccccc2C(=O)c2ccccc2)C(=O)O)cc1 | active: 30.6 µM | active: 13.8 µM | inconclusive: 30.6 µM [falling, full curve] | active: 21.9 µM | inconclusive: 47.1 µM | active: 34.7 µM | inconclusive: 21.9 µM | active: 21.9 µM | inconclusive: 9.77 µM | inconclusive: 21.9 µM [rising, partial curve, poor fit] | active: 34.7 µM | inconclusive: 19.5 µM [fluorescent, partial curve, poor fit] | inconclusive: 54.9 µM [falling, single point] | inconclusive: 15.5 µM [partial curve] | inconclusive: 13.8 µM | active: 21.9 µM | active: 19.5 µM | 
O=C(COc1ccc(Cl)cc1)N1CCN(Cc2ccc3c(c2)OCO3)CC1 | inconclusive: 68.6 µM [falling, single point] | inconclusive: 43.6 µM [cytotoxic, partial curve, poor fit] and inconclusive: 944 nM [cytotoxic, partial curve, poor fit] | active: 15.4 µM and active: 29.8 µM | inconclusive: 54.9 µM [cytotoxic, single point] and inactive |  | inconclusive: 61.6 µM [cytotoxic, single point] | inactive | inconclusive: 61.6 µM [cytotoxic, single point] | inconclusive: 54.9 µM |  |  |  | inconclusive: 0.298 µM [falling, single point] | inconclusive: 61.6 µM |  | inconclusive: 54.9 µM [cytotoxic, single point] |  | inconclusive: 68.6 µM [cytotoxic, single point]
